Measurements taken from the supplement of paper PMC11417369.
± gives the standard deviation of the averaged measurements. This is one part of the list.

tested on: PfAP2-I AP2 domain 3 (GST-tagged); test: gcPBM binding intensity (ln(normalized median fluorescence intensity)); higher = stronger DNA binding
Procedure, shortened: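 Each value is the highest Masliner-normalised natural-log median intensity across replicate spots of either orientation of a probe. The probes were primer-extended double-stranded 36-bp intergenic genomic sequences on an Agilent 4 × 180k array, alongside negative controls, exposed for 1 h to GST-tagged P. falciparum DNA-binding domains expressed in E. coli. Bound protein was picked up with Alexa488 anti-GST antibody and scanned at 488 nm.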

Sequence | gcPBM binding intensity (ln)
AGAAGAAAACAAAACACACACATATATCTTAATATA [CACACA_site2231] | 7.62 ± 0.5
AAAAAAAAAAACTTTGCATGTAATAATAAAAAAAAA [TGCATGCA_site81] | 7.74 ± 0.93
TGGTGAAAAATATAAATATAAATAAATATATATATA [CACACA_negctrl_site1725] | 8.86 ± 0.54
ATGATCTGTTTGTTTGTGCACATATATATATATTAA | 10.5 ± 0.21
AAATAAATTGAAGATACATGCATATTTTTTTTTTAT [TGCATGCA_site686] | 7.35 ± 0.73
TTTATATTTTTTTTTGCACACTTTAAAAAAATATAT [CACACA_site1146] | 10.06 ± 0.064
TATATATTACATAAAACACACAAAAAAAAAATTAAA [CACACA_site3882] | 7.67 ± 0.45
ATGTAGAGTAATAGTTGTACAAGGTGTATATCTCAT [XGTACX_site6370] | 8.21 ± 0.87
AATTAAATGTTTCTAAGATATACGACCAATGTATTT [CACACA_negctrl_site1694] | 7.46 ± 0.53
AATTAATGGGTACATACACACATATATACATACATA [CACACA_site742] | 8 ± 0.25
TGTATTATCTCTTATGAACACACATTTTTATTTTCA [CACACA_site9107] | 7.81 ± 0.68
ATGTTAATTAATGAGGTGCATTGAATATTTCAATAA | 10.9 ± 0.73
CATCAATGCTAATTATGTACTTACATAAATAACCCT [XGTACX_site968] | 7.73 ± 0.51
ATACCTAAAAAATATACACACATATATATAAATATA [CACACA_site2580] | 7.75 ± 0.44
ATATTAATGATATATACACACATAAGTATTGTATAT [CACACA_site7844] | 7.56 ± 0.23
AAATGTAATTTGTCTTTTATTTATATTTGACATGAT [TGCATGCA_negctrl_site520] | 7.49 ± 0.24
TTTTTTTTTTTTTTTTTTTTTTTGCTCAGTGTGGTA [CACACA_negctrl_site29] | 8.16 ± 0.62
TTGATGGGAAAAAACTTTTTTTTCTTTTTTTCTTTC [CACACA_negctrl_site328] | 7.23 ± 0.76
TATCACCCACCATGAAGTACATATTACCATTTGATG [XGTACX_site845] | 7.95 ± 0.52
ATAAATAAATAAAAGCGTACATATATATAAAATATA [XGTACX_site8107] | 7.93 ± 0.16
AAAAGGAAGATATATACACACATACAAATATTTATA [CACACA_site7093] | 7.68 ± 0.52
TTATACTAAATGAACACACACACATATATATATATA [CACACA_site99] | 9.49 ± 0.53
AGAGTTAAACGATATATATAAATATATATATATATA [GTGCAC_negctrl_site316] | 9.17 ± 0.4

Sequence | gcPBM binding intensity (ln)
AAAAAAAAAAACGACAGTACAATTATAATTTATATT [XGTACX_site2365] | 7.59 ± 0.75
ATGTCTTAAAAATTAAAACACACGTTCACTTTCATA [CACACA_site3385] | 7.92 ± 0.59
AGATCATAATATTATACACACATTAGATATAGGTAA [CACACA_site6809] | 7.75 ± 0.55
TATATAATACGAATTTGTACATATTAAATAAATTAT [XGTACX_site93] | 7.56 ± 0.41
GTTAGTTTTAGTTCATGTACATAATAGAAAATATAT [XGTACX_site7125] | 8.15 ± 0.3
AAGGTATGATTAATCACACACATAAATATAAATACA [CACACA_site5464] | 7.61 ± 0.71
AAGCTTCATTAATATACACACATATATGTGTATATT [CACACA_site7693] | 7.54 ± 0.54
ATAAAATATAGGTATGCACACACATATACTTCTGTG [CACACA_site8398] | 8.06 ± 0.61
AATAAAGAAGAAGAAAGTACACATTTCACAAAGGGG [XGTACX_site1308] | 8.23 ± 0.21
GATATATGTATAATAACGCACACTACAAAAATAAAA [CACACA_site2100] | 10.2 ± 0.61
TTTTTTATGAGGTGGTGTACTTTTTTTTTTTTCTTT [XGTACX_site8550] | 8.23 ± 0.2
TGGTAATACCCATACACACACACATACCCATATATA [CACACA_site5509] | 8.1 ± 0.24
ATAAATAAAACAACAGTGCAATAAAATTAGTTGAGG | 10.9 ± 0.25
ATTAAAGAGAGACATCAACACACATACGTATGTATA [CACACA_site8393] | 7.52 ± 0.38
CAAGAAACAGTGATACGTACACATATATATATATAT [XGTACX_site3229] | 9.35 ± 0.2
TAATATATTATAAACACATGCACATTAATAATAACT [TGCATGCA_site708] | 8.08 ± 0.58
TATATATATATATATGTGCACATTTTATTAAAATGT | 9.87 ± 0.15
ATAGACATTTTACTTTGTACATATAAACATATATAT [XGTACX_site2733] | 7.97 ± 0.64
ATATGAAACATGAAGGTGCATAATGTGTATATTTAT | 11.3 ± 0.69
ACATAAATATATTTTTCACACATCATTAGTTATGAA [CACACA_site4724] | 7.93 ± 0.45
TATTTTTTAAAAAAACGTACAAACATAATAAAAATA [XGTACX_site1857] | 8.24 ± 0.28
ATTTTCAAATTATCAGATGAATCTTTTTAAGATCTT [XGTACX_negctrl_site598] | 7.05 ± 0.73
